Reference: the supplement of paper PMC12217912
Some of the results follow. The full chains were built here from the parent and the listed change. Values near 0.05 are background.

B1: TEV protease; numbered along this chain (parent)
chain: MGESLFKGPRDYNPISSSICHLTNESDGHTTSLYGIGFGPFIITNKHLFRRNNGTLVVQSLHGVFKVKDTTTLQQHLVDGRDMIIIRMPKDFPPFPQKLKFREPQREERICLVTTNFQTKSMSSMVSDTSCTFPSGDGIFWKHWIQTKDGQCGSPLVSTRDGFIVGIHSASNFTNTNNYFTSVPKNFMELLTNQEAQQWVSGWRLNADSVLWGGHKVFMVKPEEPFQPVKEATQL

Variants of: B1
Experiment: raw area under fraction-flipped curve 0-4 h after induction (AUC4h, not background-subtracted), DNA-recorder readout of cleavage of the substrate (dimensionless); higher = more cleavage of the substrate by the protease variant
Conditions: temperature: 34 °C; time window: 0-4 h after rhamnose induction
Description: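 In vivo DNA recorder in E. coli TOP10(DE3) ΔrhaA at 34 °C. Each TEVp single-site mutant (parent TEVp 0) is paired with a single-site variant of the 7-mer TEVs (canonical ENLYFQ|S). The substrate sits between flexible linkers in a Bxb1-sfGFP-TEVs-SsrA fusion, so cleavage stabilises Bxb1 and speeds flipping of a recombination array, read by NGS. The value is the raw area under the fraction-flipped curve over 0-4 h after rhamnose induction (AUC4h), with ≥20 reads per time point. It is not background-subtracted; inactive controls average about 0.047.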
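Also: Bxb1 expression induced with 0.2% (w/v) L-rhamnose at OD600 near 0.5, cultures sampled hourly, flipped fraction per protease–substrate barcode pair counted by paired-end Illumina sequencing.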

Row | Variant | area with substrate ENLYFQC | area with substrate ENLYFQD | area with substrate ENLYFQL | area with substrate ENLYFQM | area with substrate ENLYFQN | area with substrate ENLYFQR | area with substrate ENLYFQS | area with substrate ENLYFQT | area with substrate ENLYFQY | area with substrate ENLYFQI | area with substrate ENLYFQQ | area with substrate ENLYFQV | area with substrate ENLYFQW | area with substrate ENLYFQF | area with substrate ENLYFQG | area with substrate ENLYFQH | area with substrate ENLYFQK | area with substrate ENLYFQP | area with substrate ENLYFQE
1 | S158I | 0.0581 | 0.0308 | 0.0565 | 0.0613 | 0.0542 | 0.0467 | 0.05 | 0.0046 | 0.0183 | – | – | – | – | – | – | – | – | – | –
2 | S158A | 0.117 | 0.0698 | – | – | – | 0.0669 | 0.0968 | 0.064 | – | 0.0415 | 0.096 | 0.033 | 0.0653 | – | – | – | – | – | –
3 | T181P | 0.0488 | – | 0.0587 | 0.0536 | – | – | 0.0583 | – | 0.0525 | 0.0687 | – | 0.0563 | – | 0.0519 | 0.0524 | 0.0554 | 0.0495 | 0.0505 | –
4 | P228V | 0.113 | 0.0831 | – | – | 0.0721 | 0.0512 | 0.11 | 0.0783 | 0.0612 | – | – | – | – | 0.0924 | – | – | – | – | –
5 | I145Q | 0.0733 | – | 0.0511 | 0.0934 | – | 0.0621 | 0.0713 | – | – | 0.0688 | – | 0.0472 | 0.0555 | – | – | 0.0584 | 0.0599 | 0.0558 | –
6 | T176A | 0.0861 | – | – | 0.0784 | 0.0517 | 0.0583 | 0.0785 | 0.0385 | – | 0.0364 | 0.111 | – | 0.0315 | – | 0.0656 | 0.0672 | – | – | –
7 | T233R | 0.0795 | – | – | – | 0.0473 | 0.0582 | 0.104 | 0.0623 | 0.0784 | 0.0657 | – | 0.0603 | 0.0802 | – | 0.102 | 0.0824 | 0.0501 | – | –
8 | T233N | 0.124 | – | – | 0.123 | 0.0878 | – | 0.118 | – | – | – | – | 0.0735 | 0.0751 | 0.115 | – | – | 0.0721 | 0.0782 | –
9 | E223H | 0.0983 | 0.0694 | 0.0811 | 0.0986 | 0.0811 | 0.0551 | 0.096 | 0.0451 | 0.0598 | 0.0635 | – | 0.0616 | 0.0555 | 0.0789 | 0.0982 | – | – | 0.0615 | –
10 | E223M | 0.106 | 0.076 | 0.0683 | – | 0.0763 | 0.0554 | 0.0883 | – | – | 0.0765 | 0.0456 | 0.0647 | 0.0587 | – | – | 0.0669 | 0.0811 | 0.0731 | –
11 | T129V | 0.103 | 0.0658 | 0.04 | 0.085 | 0.0615 | 0.0551 | 0.0878 | – | 0.0951 | 0.0779 | – | – | – | – | 0.0896 | 0.0814 | – | 0.0584 | 0.0686
12 | G213L | 0.0629 | – | 0.0619 | 0.0534 | 0.0464 | 0.0409 | 0.061 | 0.0415 | 0.0525 | – | – | – | 0.0599 | – | – | – | 0.0457 | 0.0535 | –
13 | S154R | 0.0917 | – | 0.0445 | 0.0639 | 0.0571 | 0.0549 | 0.0776 | 0.0449 | 0.0602 | – | 0.0586 | – | 0.0668 | 0.0664 | 0.072 | 0.0527 | 0.0528 | 0.0723 | –
14 | K221V | 0.097 | 0.0796 | – | 0.0609 | 0.0618 | 0.0723 | 0.0915 | 0.0723 | 0.0626 | 0.0589 | 0.0682 | 0.0677 | 0.0774 | – | 0.0854 | – | – | – | –
15 | V229I | 0.114 | – | – | – | 0.0692 | – | 0.104 | – | 0.101 | – | – | 0.0616 | – | – | 0.0775 | – | 0.0418 | – | –
16 | V229G | 0.0989 | 0.135 | 0.064 | 0.107 | 0.0767 | 0.0586 | 0.108 | 0.0745 | 0.0696 | 0.0545 | 0.088 | 0.0784 | – | – | 0.103 | 0.072 | 0.0499 | – | –
17 | W212Q | 0.131 | 0.064 | 0.057 | 0.0701 | 0.0629 | 0.0629 | 0.0985 | – | – | 0.0587 | – | 0.0617 | 0.0315 | – | – | – | – | 0.0522 | –
18 | A207P | 0.0896 | 0.0778 | – | 0.0821 | 0.0846 | 0.0421 | 0.1 | – | 0.0742 | 0.0635 | – | 0.0534 | 0.0654 | 0.0446 | 0.0903 | 0.0501 | – | 0.0549 | –
19 | Q234F | 0.11 | – | 0.0585 | 0.071 | 0.083 | 0.05 | 0.089 | 0.0718 | – | – | – | – | 0.073 | – | 0.0755 | – | 0.0899 | – | –
20 | F133C | 0.0905 | 0.0671 | 0.0474 | – | – | 0.0602 | 0.104 | – | – | 0.0613 | – | – | – | – | – | 0.0812 | – | – | –
21 | R160S | 0.11 | – | – | 0.108 | – | – | 0.113 | – | – | – | – | – | – | – | – | – | – | 0.0539 | –
22 | L156C | 0.124 | – | 0.051 | 0.0875 | 0.0858 | 0.0379 | 0.105 | 0.0661 | 0.082 | 0.0604 | 0.0946 | – | 0.0645 | – | 0.122 | – | 0.0599 | 0.0493 | –
23 | G166I | 0.0435 | 0.0513 | 0.0436 | 0.0609 | 0.0579 | 0.0502 | 0.0508 | 0.0473 | 0.0416 | 0.0406 | 0.0458 | 0.0503 | 0.056 | 0.0501 | 0.0519 | 0.0447 | 0.0437 | – | –
24 | T192A | 0.112 | – | – | 0.0819 | – | 0.0603 | 0.093 | – | 0.0748 | – | – | 0.0514 | 0.0621 | – | – | – | 0.0533 | – | –
25 | V183L | 0.0783 | – | 0.064 | – | – | 0.0591 | 0.0829 | 0.0662 | 0.0799 | – | – | 0.0671 | 0.0662 | – | 0.0756 | – | 0.0703 | – | –
26 | E231A | 0.0941 | – | – | 0.0842 | 0.0875 | 0.0484 | 0.101 | 0.083 | 0.0838 | 0.0486 | – | – | – | – | 0.0984 | – | 0.0739 | – | –
27 | I139W | 0.109 | 0.0842 | 0.0537 | – | 0.072 | 0.0728 | 0.0931 | – | 0.066 | 0.0802 | – | 0.062 | 0.0676 | – | – | 0.083 | – | 0.0543 | –
28 | I139P | 0.129 | 0.0479 | – | – | – | – | 0.115 | 0.0581 | 0.0637 | – | 0.0623 | – | 0.0639 | – | – | 0.0936 | 0.0374 | 0.0665 | –
29 | T147P | 0.0918 | – | 0.0434 | 0.0777 | 0.0624 | 0.0667 | 0.0748 | 0.0759 | 0.0582 | 0.0538 | 0.0407 | 0.0584 | 0.047 | – | 0.0872 | 0.0655 | 0.0652 | 0.0567 | –
30 | Q194L | 0.107 | – | 0.0616 | 0.0575 | 0.067 | 0.067 | 0.0842 | – | 0.0669 | – | – | 0.0492 | 0.0566 | – | – | – | 0.065 | 0.0541 | –
